# Source: PubChem BioAssay AID1159614 (National Center for Advancing Translational Sciences (NCATS), 2016)
# The whole screen tested about 45,000 compounds, of which about 65 (0.1%) were called active. Calls follow the shape of the dose curve; as a rule, active = well fitted activation curve with a large enough effect; inconclusive = small, poorly fitted or top-dose-only effect; inactive = no such curve, though single readings can be large or run the other way. This is one part of the list.
# Target: Galactocerebrosidase (Homo sapiens) (UniProt P54803)
# Assay: A Novel Cell-Based Assay to Identify Small Molecules for B -Galactocerebrosidase; also: 0% is about no effect; nearly all actives have a fitted effect of over 65% in size
# Settings: 145M-Twi-hGALC-G270D cells (Twitcher mouse brain line with human GALC G270D), HMU-beta-Gal fluorescence, 48 h; series mostly up to 57.5 µM; activation: at the top concentration
# Method in brief: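 Brain-derived Twitcher mouse 145M-Twi cells stably expressing human GALC-G270D or wild-type GALC, treated live, then residual GALC activity read by fluorescence of HMU-b-Gal substrate (0.1 mM final) in citrate-phosphate buffer pH 5.2 with sodium taurocholate. Signal increase indicates enhancement.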
# UniProt P54803, sequence (P54803 whole entry, looked up): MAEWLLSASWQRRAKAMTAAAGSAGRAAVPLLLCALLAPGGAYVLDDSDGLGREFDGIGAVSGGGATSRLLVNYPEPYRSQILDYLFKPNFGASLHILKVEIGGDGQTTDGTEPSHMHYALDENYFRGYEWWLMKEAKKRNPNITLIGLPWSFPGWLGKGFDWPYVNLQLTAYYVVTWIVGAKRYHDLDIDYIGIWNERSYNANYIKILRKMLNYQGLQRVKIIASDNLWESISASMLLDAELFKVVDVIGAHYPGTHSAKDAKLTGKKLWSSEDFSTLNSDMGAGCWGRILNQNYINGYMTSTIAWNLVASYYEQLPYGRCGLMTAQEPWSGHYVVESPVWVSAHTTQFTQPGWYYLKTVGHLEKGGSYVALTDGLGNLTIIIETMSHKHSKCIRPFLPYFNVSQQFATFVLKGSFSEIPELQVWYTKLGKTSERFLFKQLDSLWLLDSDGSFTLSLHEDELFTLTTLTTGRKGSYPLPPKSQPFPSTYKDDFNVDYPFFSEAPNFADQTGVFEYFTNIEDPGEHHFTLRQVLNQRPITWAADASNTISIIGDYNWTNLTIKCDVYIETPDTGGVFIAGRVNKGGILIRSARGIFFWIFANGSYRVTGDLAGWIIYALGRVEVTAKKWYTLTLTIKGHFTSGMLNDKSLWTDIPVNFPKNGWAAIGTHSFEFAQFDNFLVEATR
row,Structure (SMILES),activation
1,Cc1cccc2sc(N(Cc3cccnc3)C(=O)CCOc3ccccc3)nc12,inactive: -10.5%
2,CCOC(=O)CSc1nc2ccc(NC(=O)COc3ccc(F)cc3)cc2s1,inactive: -10%
3,CN(C)c1ccc(C(CNC(=O)c2ccccc2Cl)N2CCCC2)cc1 (configuration not stated),inactive: -3.93%
4,CCOc1ccc(NC(=O)N(Cc2cn(CC)c3ccccc23)C2CCCCCC2)cc1,inactive: -14.9%
5,COc1ccc(S(=O)(=O)c2c(Nc3ccc(C)cc3C)sc(C(=O)c3ccc(F)cc3)c2N)cc1,inactive: -22.9%
6,Cc1cc(C)c(NC(=O)C2CCN(S(=O)(=O)c3c(C)noc3/C=C/c3ccccc3F)CC2)c(C)c1,inactive: -7.83%
7,O=C(CSc1nc2c([nH]c3ccccc32)c(=O)n1-c1cccc(Cl)c1)c1ccccc1,inactive: -26.1%
8,O=C(NCc1ccccc1)C(=O)NCC(c1cccs1)S(=O)(=O)c1cccs1 (configuration not stated),inactive: -2.85%
9,Cc1nnsc1C(=O)Oc1ccc(Cl)cc1,inactive: -16.2%
10,CN1C(=O)Cc2cc(S(=O)(=O)NCc3ccc(Cl)cc3)ccc21,inactive: -6.05%
11,Cc1c(C(=O)OCC2CCCCC2)[nH]c2c1C(=O)CC(c1ccccc1Cl)C2 (configuration not stated),inactive: -4.74%
12,COc1ccc(CCNC(=O)CCc2c(C)nc3c4cccnc4nn3c2C)cc1OC,inactive: -11.9%
13,CCCCn1cc(S(=O)(=O)c2ccc(OC)cc2)c(=O)c2cc(F)c(N3CCOCC3)cc21,inactive: -14.3%
14,CCc1ccc(-n2nc(C)c3c(C)cc(=O)n(CC(=O)Nc4cc(C)ccc4C)c32)cc1,inactive: 1.85%
15,COc1ccc(NC(=O)c2ncn(-c3ccccc3)n2)cc1Cl,inactive: -29.3%
16,COc1cccc(N2CCN(C3=NS(=O)(=O)C(c4ccc(C)cc4)=C3C)CC2)c1,inactive: -13.8%
17,Cc1ccc(Cn2c(=O)n(CCCCC(=O)NCc3ccc4c(c3)OCO4)c(=O)c3ccccc32)cc1,inactive: 8.15%
18,Cc1cc(C)cc(C(=O)NCCc2csc(-c3ccc(C(F)(F)F)cc3)n2)c1,inactive: -15%
19,CCc1ccccc1NC(=O)CSc1ncc2c(n1)-c1cc(Cl)ccc1N(Cc1ccccc1)S2(=O)=O,inactive: 1.13%
20,CCC(Sc1nnc2c(n1)[nH]c1ccccc12)C(=O)Nc1ccccc1OC (configuration not stated),inactive: -14.2%
21,CCc1ccccc1S(=O)(=O)Cc1ccc(C(=O)NCCc2ccc(C)cc2)o1,inactive: -10.4%

row,Structure (SMILES),activation
1,Cc1cc2c(cc1NS(=O)(=O)c1ccc(NC(=O)CC(C)C)cc1)n(C)c(=O)c(=O)n2C,inactive: -4.32%
2,Cc1cc(C)c(NC(=O)Cn2c(=O)n(CC3CCCO3)c(=O)c3ccccc32)c(C)c1 (configuration not stated),inactive: -0.321%
3,Cn1cc(S(=O)(=O)N2CCCC2)cc1C(=O)N1CCN(c2cccc(Cl)c2)CC1,inactive: -8.75%
4,Cc1ccc(N2C(=O)c3n[nH]c(C)c3C2c2ccccc2Cl)cc1 (configuration not stated),inactive: 3.74%
5,CC(=O)Nc1c(C)nn(-c2ccccc2)c1N1CCC(C(=O)Nc2cc(F)ccc2F)CC1,inactive: -5.4%
6,COc1ccccc1NC(=O)N1CCN(Cc2nc3ccc(C)cc3o2)CC1,inactive: -7.76%
7,O=C(O)CCC(=O)O,inactive: -18.8%
8,Cc1c2cnn(CC(=O)NC(C)C)c(=O)c2c(C)n1Cc1cccc(Cl)c1,inactive: -16.5%
9,CC(Oc1ccccc1)C(=O)Nc1cccc(-c2cn3cccnc3n2)c1 (configuration not stated),inactive: -15.4%
10,CCNC(=O)c1ccc2c(c1)sc1nc(-c3cccc(OC)c3)cn12,inactive: 9.73%
11,Cc1ccc(NC(=O)N2CCC3(CC2)Oc2ccccc2C(=O)N3Cc2ccc(F)cc2)cc1,inactive: -10.7%
12,O=C(NCCc1ccccc1)c1ccc2c(c1)N(Cc1ccc(F)cc1Cl)C(=O)CS2,inactive: -4.29%
13,NC1=NCC2c3ccccc3Cc3ccccc3N12 (configuration not stated),inactive: -15%
14,CCc1ccc(OC(=O)CSc2nnc(-c3ccc(OC)c(OC)c3)o2)cc1,inactive: 11.2%
15,COc1ccc(S(=O)(=O)c2c(C(=O)c3ccc(C)c(C)c3)cnc3ccc(C)cc23)cc1,inactive: -13.9%
16,Fc1ccc(-c2cc(-c3nc(-c4ccc(Cl)cc4)no3)[nH]n2)cc1,inactive: -13.8%
17,Cc1c(C(=O)OC2CCC(C)CC2)[nH]c2c1C(=O)CC(c1ccc(N(C)C)cc1)C2 (configuration not stated),inactive: -14.1%
18,O=C(Cn1cc(SCc2cccc(Cl)c2)c2ccccc21)N1CCCCC1,inactive: -11.9%
19,CCOc1ccc(NC(=O)CC2C(=O)N(c3ccccc3)C(=O)N2CCc2sccc2C)cc1 (configuration not stated),inactive: -14.8%
20,CCOc1nc(-c2ccccc2)ccc1-c1noc(-c2ccc(C)cc2)n1,inactive: -16.3%
21,Cc1ccccc1CSc1nc2c(sc3ccccc32)c(=O)n1CCCC(=O)NCCCOC(C)C,inactive: -12.5%

row,Structure (SMILES),activation
1,COC(=O)c1cc(NC(=O)CC2C(=O)OCCN2Cc2ccccc2)cc(C(=O)OC)c1 (configuration not stated),inactive: -9.94%
2,COc1cccc(OCC(=O)NC2CC(=O)N(c3cccc(OC)c3)C2)c1 (configuration not stated),inactive: -14%
3,CC(C)(C)OC(=O)N1CCC(c2c(C(=O)N3CCN(C(=O)c4ccco4)CC3)cnn2-c2cccc(Cl)c2)CC1,inactive: -14.5%
4,CC(=O)c1ccc(NC(=O)c2nc(-c3ccc(Cl)cc3)n3c2CCCCC3)cc1,inactive: -13.7%
5,COCc1cc(C)nc2c1C(=O)NC(c1ccc(NC(C)=O)cc1)N2Cc1ccccc1 (configuration not stated),inactive: -25.5%
6,Cc1cccc(OCC(=O)N2CCC(c3nc4ccccc4o3)CC2)c1C,inactive: -14.6%
7,Cc1cc(C)c2c(=O)cc(C(=O)Nc3sc4c(c3C(=O)NCc3ccco3)CCCC4)oc2c1,inactive: 2.64%
8,CS(=O)(=O)CC[C@@H](C(=O)NCCc1ccccc1)N1Cc2ccccc2C1=O,inactive: -1.66%
9,CN(c1nnc(NC(=O)Nc2ccccc2C(F)(F)F)s1)C1CCCCC1,inactive: -24.3%
10,COc1ccc(NC(=O)Cn2c(=O)c3ccccc3n3nncc23)cc1Cl,inactive: -17.9%
11,NC(=O)N1c2ccccc2CC(=O)c2ccccc21,inactive: -19.5%
12,O=C(C1COc2ccccc2O1)N(Cc1cccnc1)c1nc2c(F)cccc2s1 (configuration not stated),inactive: 0.764%
13,CCOC(=O)c1c(NC(=O)c2cc(-c3cccc(Cl)c3)on2)sc(C(C)=O)c1C,inactive: -10.3%
14,CC1CCN(S(=O)(=O)c2cc(C(=O)N3CCN(c4cccc(Cl)c4)CC3)n(C)c2)CC1,inactive: 1.86%
15,COc1ccc2c(c1)-c1nc(NC(=O)c3cccc(Br)c3)sc1CC2,inactive: -2.22%
16,Cc1ccc(NC(=O)CN2C(=O)c3cccnc3Sc3ccccc32)c(Br)c1,inactive: 0.208%
17,Cc1ccc(Nc2c3c(nc4nncn24)CCC3)c(C)c1,inactive: -8.73%
18,Cc1ccc(NC(=O)Cn2nnc(-c3ccccc3)n2)c(C)c1,inactive: 9.26%
19,COc1ccccc1C1C(C(=O)N2CCCCC2)=C(C)Nc2nc3ccccc3n21 (configuration not stated),inactive: -8.83%
20,CCOC(=O)c1nnn(C(CC)C(=O)Nc2ccc(F)cc2)c1C(=O)OCC (configuration not stated),inactive: -21.8%
